PubChem BioAssay AID1963576 (National Center for Advancing Translational Sciences (NCATS), 2024)
The whole screen tested about 46,000 compounds, of which about 60 (0.1%) were called active. Not shown: some 3% with an inconclusive outcome. Calls come from the whole dose curve; as a rule, active = well fitted inhibition curve with a large enough effect; inconclusive = small, poorly fitted or top-dose-only effect; inactive = no such curve, though single readings can be large or run the other way. The list shows a part of the results.

assay: Primary qHTS assay for Inhibitors of ovarian cancer metastasis using an organotypic tumor microenvironment (TME) model.; note: nearly all actives have a fitted effect of over 65% in size;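 for activity change, negative = inhibition: plate controls were DMSO wells for no effect and tomatine positive control wells for full effect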; conditions: SKOV3ip1-GFP adhesion/invasion on 3D omental model, fluorescence; series mostly up to 45.8 µM; activity change, negative = inhibition: at the top concentration
How it was run: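 Adhesion/invasion was scored as fixed GFP-labeled SKOV3ip1 cell counts (488/509 nm), normalized to DMSO and tomatine controls. Cancer cells in serum-free medium, with four compound doses (0.36-46 umol/L), sat 2 hr at RT then 16 hr at 37 C on a 48 hr fibroblast/mesothelial/ECM culture.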

Activity change, negative = inhibition, inactive:
Cc1cc(-n2c(C)nc3ccccc3c2=O)ccc1NC(=O)c1ccc([N+](=O)[O-])cc1 -0.648%
O=C(Nc1ccc(S(=O)(=O)N2CCCCCC2)cc1)c1cc(=O)c2ccccc2o1 -5.86%
COc1ccc(NCc2cc3ccc(OC)cc3n(CC(=O)Nc3cc(Cl)ccc3C)c2=O)cc1 -15%
Cc1cc(=O)n(CC(=O)N2CCN(c3ccc(F)cc3)CC2)c2c1c(C)nn2C -6.48%
Nc1c(-c2nc(-c3ccc(F)cc3)cs2)c2ccccn2c1C(=O)c1ccc2c(c1)OCO2 3.35%
CCOc1ccc(NS(=O)(=O)c2ccc3[nH]cc(C(=O)NCC4CCCO4)c(=O)c3c2)cc1 (stereo not given) -1.21%
CCOc1ccc(N2CC(C(=O)NCc3nnnn3-c3ccc(C)c(C)c3)CC2=O)cc1 (stereo not given) -9.17%
CC(=O)c1ccc(N2CCN(C(=O)CCS(=O)(=O)c3ccc4c(c3)oc(=O)n4C)CC2)cc1 -13.6%
CCc1cccc(NC(=O)CN(C)S(=O)(=O)c2cccc3cccnc23)c1 1.42%
CC(Oc1ccccc1F)C(=O)Nc1ccc(-c2nc3ccccc3s2)cc1 (stereo not given) -7.44%
CC(=O)c1cccc(NC(=O)c2cc3c(s2)-c2c(C)cccc2OC3)c1 -1.48%
CCC1CCCCN1C(=O)c1sc(-n2nc(C)c(Cc3ccccc3)c2C)nc1C (stereo not given) 13.1%
COc1cc(/C=C/c2nc(C#N)c(N3CCC(C)CC3)o2)cc(OC)c1OC 1.33%
CCc1ccc2c(c1)NC(c1ccc(OC)cc1)=NC(c1ccncc1)=N2 0.692%
CCOC(=O)c1c(S(=O)(=O)NCC(=O)NCc2ccccc2)c(C)n(C)c1C -5.9%
Cc1cccc(-c2nc3c4ccccc4nc(NCc4ccc(F)cc4)n3n2)c1 0.638%
COc1cccc(OC(=O)CSc2nnc(-c3ccc4c(c3)OCO4)o2)c1 -5.08%
CC(C)CCN(C(=O)Nc1ccc(Cl)c(Cl)c1)C(C)c1cccs1 (stereo not given) -8.24%
COc1ccccc1OCC(=O)Nc1c(C(=O)c2ccc(F)cc2)oc2ccccc12 -9.46%
CSc1ncc(C(=O)N2CCN(c3cccc(C(F)(F)F)c3)CC2)c(C)n1 -4.71%
Cc1ccc2c(c1)N(CCCC(=O)NCc1cccc(F)c1)C(=O)CO2 13.6%
COc1ccc(C2N3CC4(C)CN2CC(c2ccccc2)(C3)C4=O)cc1OC (stereo not given) 6.25%
COc1ccc(C2CC(=O)c3cc(-c4nc(-c5cccc([N+](=O)[O-])c5)cs4)c(=O)n(-c4ccc(OC)cc4)c3C2)cc1 (stereo not given) 12.2%
COc1cccc(-n2c(=O)c3sc4ccccc4c3n(CC(=O)Nc3ccccc3C)c2=O)c1 -6.19%
CCCN(CCC)CCCNC(=O)c1cc2c(=O)[nH]c3ccccc3c2n1C -23.1%
N#Cc1ccc(NC(=O)Nc2ccccc2Br)c2n[nH]nc12 45.1%
Cc1ccc(NC(=O)C2CCN(S(=O)(=O)c3cc(-c4noc(C)n4)ccc3C)CC2)c(C)c1 -2.21%
CCOC(=O)c1ccccc1NC(=O)CCc1nc(-c2ccc(C)cc2)no1 3.89%
CC(CNC(=O)CCS(=O)(=O)c1cc2c(cc1Cl)NC(=O)CO2)c1ccccc1 (stereo not given) -7.96%
CCCCOc1ccc(Cn2c(=O)sc3ccccc32)cc1 1.46%
COc1ccc(N2CCN(c3csc4ccccc4c3=O)CC2)cc1 -0.408%
COc1ccc(C(CNC(=O)COc2cc(C)cc(C)c2)N2CCOCC2)cc1 (stereo not given) -2.9%
O=C1c2ccccc2-c2onc3c(NCCO)cc(NC4CCCCC4)c1c23 -6.74%
Cn1nccc1C(=O)NCc1ccc2c(c1)CCN2C(=O)c1ccc(Cl)cc1 -2.4%
CC(Sc1oc(-c2cccs2)nc1S(=O)(=O)c1ccccc1)c1ccccc1 (stereo not given) 1.51%
Cc1c(C(=O)Nc2ccc(F)cc2F)sc2nc3n(c(=O)c12)N=C(c1ccccc1)CS3 -3.79%
CCC(CC)[C@H](NC(C)=O)[C@@H]1[C@H](O)[C@@H](C(=O)O)C[C@@H]1N=C(N)N -21.2%
NC(=O)NN=Cc1ccc([N+](=O)[O-])o1 12.2%
Cc1ccc(NC(=O)CSc2nc(=O)cc(N)n2CCc2ccccc2)cc1 16.3%
CCc1ccccc1NC(=O)C1CCCN(c2cnccn2)C1 (stereo not given) 2.6%
O=C(Nc1ccccc1C(F)(F)F)N1CCN(c2ccc3nnc(-c4ccc(F)cc4)n3n2)CC1 -18.8%
CCOc1ccc(CNC(=O)C2Cc3cc(S(=O)(=O)N4CCCCCC4)ccc3N2C(C)=O)cc1 (stereo not given) -2.46%
O=C(c1ccc(F)cc1F)N1CCC(c2noc(-c3ccc(S(=O)(=O)N4CCCC4)cc3)n2)CC1 8%
O=C(Nc1nnc(S(=O)(=O)N2CCOCC2)s1)c1ccc(F)cc1 -0.942%
CCOc1ccc(OCC)c(NC(=O)C2CCN(c3cnccn3)CC2)c1 -1.47%

outcome, inactive:
COc1ccccc1NC(=O)C1CCC(CNS(=O)(=O)c2ccc3c(c2)CC(C)N3C(C)=O)CC1 (stereo not given)
COC(=O)CN1C(=O)CSc2ccc(S(=O)(=O)Nc3cccc(Cl)c3C)cc21
CC1CCc2c(sc(NC(=O)c3cc4nc(-c5ccc(Cl)cc5)cc(C(F)(F)F)n4n3)c2C#N)C1 (stereo not given)
Cc1ccc(Cl)cc1NC(=O)CN1C(=O)C(C)(C)c2cc(S(=O)(=O)N3CCCCC3)ccc21
COc1ccc(S(=O)(=O)c2cnc(SCC(=O)Nc3cc(F)ccc3C)[nH]c2=O)cc1Cl
CCOc1ccccc1NC(=O)C(C)N(c1ccccc1)S(C)(=O)=O (stereo not given)
CCOC(=O)c1ccc(OC(=O)c2cn(-c3cccc(OC)c3)c(=O)c3ccccc23)cc1
CCc1ccc(NC(=O)c2nn(-c3ccc(OC)cc3)c(=O)c3c2c2ccccc2n3C)cc1
CCc1ccc(Oc2c(C(F)(F)F)oc3c(CN4CCCC(C)C4)c(O)ccc3c2=O)cc1 (stereo not given)
O=C(Nc1cccc(NC(=O)c2ccccc2Cl)c1)c1cccc(Br)c1
O=C(CCn1cnc2onc(-c3ccc(F)cc3)c2c1=O)N1CCN(c2cccc(Cl)c2)CC1
Cc1ccc(NC(=O)Cn2c(-c3nonc3N)nc3ccccc32)cc1Cl
CCC(C(=O)NCCCN(CC)CC)n1ncn2c(cc3occc32)c1=O (stereo not given)
N#Cc1cccc(NC(=O)c2ccc3c(c2)N(Cc2cccc(Cl)c2)C(=O)c2ccccc2S3(=O)=O)c1
COc1ccc(C2NC(=O)N(C)C3=C2C(=O)N(c2ccc(C)cc2)C3)cc1 (stereo not given)
